Data reported in the supplement of paper PMC4967469.
By IC50 is meant the dose at which the fit gives 50% viability; a limit (>, <) means that the fit lies beyond the doses tested. AUC is the area under the same curve over the 256-fold range up to the top dose, as a fraction; the more sensitive the line, the further below 1. For part of these data: A top dose marked as inferred is not printed in the source and was worked back from the curve model. For part of these data: Drugs with an entry number were screened twice under separate entries, and the two screens often disagree.

What was measured:
Experiment in all cases: Viability of human cancer cell lines after 72 h of drug (GDSC screen)
[1] = compound: CCCC(=O)OCc1ccc(OC(=O)/C=C(C)/C=C/C=C(C)/C=C/C2=C(C)CCCC2(C)C)cc1 [VNLG/124]; conditions: top dose 5.12 µM; top dose inferred
Method: (§1)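 Human cancer cell lines in 384-well plates, medium with 10% serum, drug for 72 h over a 256-fold dose range (nine 2-fold or five 4-fold steps up to the top dose). Adherent lines were fixed and stained with the nucleic acid dye Syto60, suspension lines read with resazurin; signal relative to control wells, capped at 0 and 100%. One two-parameter sigmoid per drug and line, fitted in a mixed model over all curves with the slope shared within a line.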

[2] = compound: Cc1c(N)nc([C@H](CC(N)=O)NC[C@H](N)C(N)=O)nc1C(=O)N[C@H](C(=O)N[C@H](C)[C@@H](O)[C@H](C)C(=O)N[C@H](C(=O)NCCc1nc(-c2nc(C(=O)NCCC[S+](C)C)cs2)cs1)[C@@H](C)O)[C@@H](OC1OC(CO)C(O)C(O)C1OC1OC(CO)C(O)C(OC(N)=O)C1O)c1cnc[nH]1 [Bleomycin]
Method: as §1

[3] = compound: O=C(Nc1ccc(OC(F)(F)F)cc1)c1sccc1NCc1ccnc2ccccc12 [OSI-930]; conditions: top dose 10.24 µM
Method: as §1

[4] = compound: CC/C(=C(\c1ccccc1)c1ccc(OCCN(C)C)cc1)c1ccccc1 [Tamoxifen]; conditions: top dose 5 µM
Method: as §1

[5] = compound: CN(NC(=O)CC(=O)NN(C)C(=S)c1ccccc1)C(=S)c1ccccc1 [Elesclomol]; conditions: top dose 0.2 µM; top dose inferred
Method: as §1

[6] = compound: O=S(=O)(O)c1ccc2cc(N=Nc3cc(S(=O)(=O)O)c4cccnc4c3O)ccc2c1 [NSC-87877]; conditions: top dose 16 µM; top dose inferred
Method: as §1

[7] = compound: O=C(/C=C/c1ccc(CN(CCO)CCc2c[nH]c3ccccc23)cc1)NO [LAQ824]; conditions: top dose 1.024 µM; top dose inferred
Method: as §1

[8] = compound: Cc1ccc(NC(=O)c2ccc(CN3CCN(C)CC3)cc2)cc1Nc1nc(-c2cccnc2)cs1 [Masitinib]; conditions: top dose 20 µM
Method: as §1

[9] = compound: O=C(Nc1cccc(Nc2ncc(Br)c(NCCc3cnc[nH]3)n2)c1)N1CCCC1 [BX-912]; conditions: top dose 10.24 µM; top dose inferred
Method: as §1

[10] = top dose 50 µM, screen: GDSC drug entry 1378, top dose inferred
[11] = top dose 64 µM, screen: GDSC drug entry 190

| Cell Line | AUC [1] | IC50 [1] [µM] | AUC [2, 10] | IC50 [2, 10] [µM] | AUC [2, 11] | IC50 [2, 11] [µM] | AUC [3] | IC50 [3] [µM] | AUC [4] | IC50 [4] [µM] | AUC [5] | IC50 [5] [µM] | AUC [6] | IC50 [6] [µM] | AUC [7] | IC50 [7] [µM] | AUC [8] | IC50 [8] [µM] | AUC [9] | IC50 [9] [µM] |
| --- | --- | --- | --- | --- | --- | --- | --- | --- | --- | --- | --- | --- | --- | --- | --- | --- | --- | --- | --- | --- |
| HOP-92 (large cell lung carcinoma, adherent) | 0.98 | > 5.12 | 0.495 | 3.02 | 0.599 | 7.82 | 0.953 | > 10.2 | 0.962 | > 5 | 0.491 | 0.0117 | 0.984 | > 16 | 0.401 | 0.0326 | 0.98 | > 20 | 0.97 | > 10.2 |
| HOS (osteosarcoma, adherent) | 0.992 | > 5.12 | 0.275 | 0.82 | 0.104 | 0.288 | 0.977 | > 10.2 | 0.967 | > 5 | 0.261 | 0.00299 | 0.99 | > 16 | 0.457 | 0.0498 | 0.95 | > 20 | 0.987 | > 10.2 |
| HT-3 (cervix, adherent) | 0.978 | > 5.12 | 0.269 | 0.678 | – | – | 0.983 | > 10.2 | 0.976 | > 5 | 0.847 | 0.15 | 0.916 | > 16 | 0.624 | 0.141 | 0.963 | > 20 | 0.96 | > 10.2 |
| HT-1376 (bladder, adherent) | 0.985 | > 5.12 | 0.841 | 44 | 0.613 | 8.63 | 0.976 | > 10.2 | 0.93 | > 5 | 0.817 | 0.138 | 0.985 | > 16 | 0.474 | 0.0537 | 0.984 | > 20 | 0.985 | > 10.2 |
| Hep 3B2_1-7 (liver, adherent) | 0.969 | > 5.12 | 0.611 | 6.29 | 0.143 | 0.307 | 0.974 | > 10.2 | 0.928 | > 5 | 0.451 | 0.00917 | 0.966 | > 16 | 0.308 | 0.0185 | 0.953 | > 20 | 0.944 | > 10.2 |
| Hs633T (fibrosarcoma, adherent) | 0.978 | > 5.12 | 0.167 | 0.401 | 0.236 | 0.828 | 0.947 | > 10.2 | 0.976 | > 5 | 0.426 | 0.00814 | 0.985 | > 16 | 0.535 | 0.0783 | 0.892 | 16 | 0.908 | 9.64 |
| HuCCT1 (biliary tract, adherent) | 0.98 | > 5.12 | 0.505 | 3.22 | 0.643 | 10.5 | 0.961 | > 10.2 | 0.918 | > 5 | 0.395 | 0.00621 | 0.983 | > 16 | 0.373 | 0.0274 | 0.867 | > 20 | 0.907 | > 10.2 |
